Test results: patent US8247569B2, “Cyclohexane derivative and pharmaceutical use thereof” (Toray Industries, Inc., priority 2008, dated 2012)

Key:
[1] = tested on: mouse model having pain due to STZ-induced diabetic neuralgia; assay: mouse model of pain due to streptozotocin (STZ)-induced diabetic neuralgia, von Frey test; type: in vivo; conditions: oral administration of 1 and 10 mg/kg; 1 hour after administration; vehicle 0.5% methyl cellulose; Williams test; FIG. 5
Experimental: STZ (250 mg/kg) or physiological saline was intraperitoneally administered to male ICR mice of 5 weeks old, to prepare mice having diabetes and a control group thereof. The mice having diabetes herein means mice whose blood glucose level at full feeding is not less than 350 mg/dL when a small amount of blood was collected from the tail vein 6 days after administration of STZ and the blood glucose level was measured using a blood glucose meter Precision Xceed and an electrode for measurement of blood glucose Smartblue (Abbott).
Seven days after the administration of STZ, the von Frey test was carried out for the mice having diabetes as in the above-described case of evaluation of neuropathic pain, and individuals showing a total score of 5 or higher were selected as individuals having the diseased state of pain due to diabetic neuralgia. The selected individuals were divided into groups such that the total score becomes even among the groups, followed by oral administration of test compounds. One hour after the oral administration, the von Frey test was further carried out, and the obtained value was used as an index of the analgesic effect. As a positive control, pregabalin (10 mg/kg, oral administration) was used.
As the vehicle of the test compound suspension, 0.5% methyl cellulose was used. […]

[2] = human liver microsomal stability assay; type: in vitro ADME; conditions: liver microsomes, pH 7.4, human liver microsomes 0.5 mg/mL, test compound 2 μmol/L, 37° C., 0-30 min, read-out: Hepatic intrinsic clearance, Human
Experimental: (§1) A liver microsomal stability assay, which is known to be an in vitro assay for evaluation of the stability of a compound against hepatic metabolism, was carried out to evaluate the stability of Compound (I) against human and mouse hepatic metabolism.
(§2) A total of 4 times of experiments were carried out for the combinations of the compound of Example 2-B or the compound of Comparative Example 29 as the test compound and human liver microsomes (Xenotech) or mouse liver microsomes (Xenotech) as the liver microsomes.
(§3) The respective reagents to be used for the liver microsomal stability assay were prepared as follows. That is, an appropriate amount of D-glucose 6-phosphate disodium salt (hereinafter referred to as G6P) was dissolved in distilled water at 100 mmol/L, to prepare 100 mmol/L aqueous G6P solution. In 5 mL of distilled water, 1000 units of Glucose 6-phosphate dehydrogenase from Yeast (hereinafter referred to as G6PDH) was dissolved, to prepare 200 units/mL aqueous G6PDH solution. An appropriate amount of MgCl2 was dissolved in distilled water at 100 mmol/L, to prepare 100 mmol/L aqueous MgCl2 solution. […]

[3] = mouse liver microsomal stability assay; type: in vitro ADME; conditions: pH 7.4; mouse liver microsomes 0.5 mg/mL; test compound 2 μmol/L; 37° C., 0-30 min; read-out: Hepatic intrinsic clearance, Mouse
Experimental: as §1, §2, §3

[4] = tested on: mouse sciatic nerve-ligation model (Seltzer model); assay: mouse partial sciatic nerve ligation model (Seltzer model), von Frey test; conditions: oral administration of Example 2-B and Example 62 in amounts of 0.3 and 1.0 mg/kg, respectively; FIG. 2, FIG. 3

**Q.** Which results are given for `COc1ccc(-n2nc(C3(O)CCC(O)CC3)cc2-c2ccc(C)cc2)cc1` (stereo not drawn) [Example 2-B, 1-(1-(4-methoxyphenyl)-5-(p-tolyl)-1H-pyrazol-3-yl)cyclohexane-cis-1,4-diol]?
**A.** total score of the von Frey test vs STZ administration+vehicle group [1]: significantly improved; microsomal CLint at 2 μmol/L [2]: 14.8 µL/min/mg; microsomal CLint at 2 μmol/L [3]: 16.8 µL/min/mg; analgesic effect 3 hours after the oral administration (von Frey test) [4]: a strong analgesic effect was maintained
